In ChEMBL document CHEMBL1156829:
The full ranking holds about 5,400 compounds; the median of “IFI” is about 2, and the highest 2% start at about 22. The list shows a part of the results.

Assay: NOVARTIS: Inhibition Frequency Index (IFI) - the number of HTS assays where a compound showed > 50% inhibition/induction, expressed as a percentage of the number of assays in which the compound was tested.
Type: functional

Compound | IFI [%]
CCn1c(C)cc(/C=C2\C(=O)NC(=O)N(c3cccc(Cl)c3)C2=O)c1C | 0
COc1cc2c3cc1Oc1c(OC)c(OC)cc4c1C(Cc1ccc(O)c(c1)Oc1ccc(cc1)CC3N(C)CC2)N(C)CC4 (stereo not given) | 7.14
Cc1c2ccccc2c(C)c2ccccc12 | 3.76
CCC1CN2CCc3cc(OC)c(OC)cc3C2CC1CC1NCCc2cc(OC)c(OC)cc21 (stereo not given) | 33.3
CC(=O)N(C1=C(N(C)C)C(=O)c2ccccc2C1=O)c1cccc(Cl)c1 | 7.14
CCC(=O)OC(C(C)C(=O)O)C(C)C1OC2(CCC(C)(C3CCC(C)(C4OC(C5OC(O)(CO)C(C)CC5C)CC4C)O3)O2)CC(O)C1C (stereo not given) | 8.62
S=C(Nc1ccccc1)N1CCCN(c2nc3ccc(Cl)cc3s2)CC1 | 5.69
Cc1ccc(CN2C3CCCC2CC(NC(=O)Nc2cccc(F)c2)C3)cc1 (stereo not given) | 1.32
C=CC1CN2CCC1CC2C(OC(C)=O)c1ccnc2ccc(OC)cc12 (stereo not given) | 1.63
OC1(c2ccc(Cl)c(C(F)(F)F)c2)CCN(CCOC2c3ccccc3CSc3ccc(Cl)cc32)CC1 (stereo not given) | 2.38
COC(=O)c1ccc(Cn2cc(C=O)c3ccccc32)o1 | 8.33
Cc1ccc(O)c(C(=O)c2c[nH]c(-c3nc4ccccc4[nH]3)c2)c1 | 0
C=C[C@H]1CN2CC[C@H]1C[C@@H]2[C@@H](OC(=O)Cc1cccs1)c1ccnc2ccccc12 | 2.5
Cn1ncnc2c(=O)n(C)c(=O)nc1-2 | 26.7
O=C1CN=C(c2ccccc2Cl)c2cc(Cl)ccc2N1Cc1cccc([N+](=O)[O-])c1 | 1.92
CNCC(O)c1ccc(Cl)c(Cl)c1 (stereo not given) | 0
C[n+]1c2n(c3ccccc31)N=C(c1ccccc1)C[Se]2 | 3.7
CC(C)N1CC=C(c2c[nH]c3ccccc23)CC1 | 0
CC1CC(C)CC(C)C(O)C(C#N)=CC=CCC(C2CCCC2C(=O)O)OC(=O)CC(O)C(C)C1 (stereo not given) | 25.8
C=C[C@H]1CN2CC[C@H]1C[C@@H]2[C@@H](OC(=O)C(C)C)c1ccnc2ccccc12 | 1.67
CCN1CC=C(c2c[nH]c3ccccc23)CC1 | 0
O=C1Nc2ccccc2Sc2ccccc21 | 2.4
C=CC1CN2CCC1CC2[C@H](O)c1ccnc2ccc(O)cc12 (stereo not given in full) | 0

Compound | IFI [%]
C=C[C@H]1CN2CC[C@H]1C[C@H]2[C@H](OC(=O)c1ccc(F)cc1)c1ccnc2ccccc12 | 0.84
C(=C\c1ccccc1)/CNC1CCN(Cc2ccccc2)CC1 | 14.3
CCc1cc2c(cc1-c1csc(NC(=N)N)n1)C(C)(C)CCC2(C)C | 5.16
c1ccc(-c2nn(-c3ccccc3)[n+](-c3ccccc3)n2)cc1 | 11.2
CC[C@@]1(O)C[C@H](O[C@@H]2CC(N(C)C)[C@@H](O[C@@H]3C[C@@H](O)[C@@H](O[C@@H]4CCC(=O)[C@@H](C)O4)C(C)O3)[C@@H](C)O2)c2c(cc3c(c2O)C(=O)c2c(O)ccc(O)c2C3=O)[C@H]1C(=O)OC (stereo not given in full) | 21.4
COc1cc2c(O[C@@H]3O[C@H](CO)[C@@H](O)[C@H](O)[C@H]3O)c3c(c(-c4ccc5c(c4)OCO5)c2cc1OC)C(=O)OC3 | 12.4
CNC1CC2OC(C)(C1OC)n1c3ccccc3c3c4c(c5c6ccccc6n2c5c31)C(=O)NC4O (stereo not given) | 28.6
CCC(C)(O)C(=O)O[C@H]1C(=O)OC2CC3C(C)=C[C@H](O)[C@@H](O)[C@]3(C)C3C24CO[C@]3(O)[C@H](O)[C@H](C)C14 (stereo not given in full) | 7.69
CC[C@H]1CN2CCc3cc(OC)c(OC)cc3[C@@H]2C[C@@H]1C[C@H]1NCCc2cc(OC)c(OC)cc21 | 23.8
COc1ccc(Cn2cccc(C(=O)Nc3ccc(OC)cc3)c2=O)cc1 | 5.26
C[C@@H]1CC[C@H]2[C@@H](C)C(=O)O[C@@H]3O[C@@]4(C)CC[C@@H]1[C@]32OO4 | 3.19
O=C1Cc2ccccc2C(=C2CCNCC2)c2ccsc21 | 0
c1cncc(CCNc2nccn3c(-c4ccc5ccccc5c4)cnc23)c1 | 0
COc1ccc(C[C@H]2NC[C@H](O)[C@H]2OC(C)=O)cc1 | 33.6
C=C[C@H]1CN2CC[C@H]1C[C@@H]2[C@@H](OC(=O)CC)c1ccnc2ccccc12 | 1.02
CCOC(=O)c1ccc2nc(C)cc(Nc3ccc(N4CCCCC4)cc3)c2c1 | 1.12
O=C1C(Nc2ccc(F)cc2)=C(N2CCCCC2)C(=O)c2ccccc21 | 12.5
Cn1ccnc1C(=O)NNc1ncc(C(F)(F)F)cc1Cl | 13.3
Cc1nc2c(=O)n(C)c(=O)nc-2n(C)n1 | 25
C=CC1CN2CCC1C(C(O)c1ccnc3ccc(OC)cc13)C2 (stereo not given) | 2.29
CCN1C(=O)N(CC(N)=O)C(=O)C12CCN(Cc1ccc(N(C)c3ccccc3)cc1)CC2 | 3.85
C=CC1CN2CCC1CC2C(OC(=O)C1CC1)c1ccnc2ccccc12 (stereo not given) | 0
CCOC(=O)c1c(CN2CCN(CC#N)CC2)n(Cc2ccccc2)c2cc(Br)c(O)cc12 | 2.27

Compound | IFI [%]
CCCCCCCCCCCCn1ccc(=N)cc1 | 15.4
CC[n+]1c(/C=C/c2ccc(SC)cc2)ccc2ccccc21 | 8.42
Cc1nc(Oc2ccc3ccc(=O)oc3c2)c2c3c(sc2n1)CCCCC3 | 0
O=C(Nc1ccc(SC(F)(F)F)cc1)Nc1cccnc1N1CCC(C(F)(F)F)CC1 | 7.34
COc1cc2c3c(c4cc(OC)c(OC)cc4c2cc1OC)CN1CCC[C@@H]1C3 | 5.26
O=[N+]([O-])c1cc(C(F)(F)F)ccc1N1CCCN(C(=S)Nc2cccc(C(F)(F)F)c2)CC1 | 2.63
CCCCCCn1c(=O)c(C(=O)NCC[N+](CC)(CC)CC)c(O)c2ccccc21 | 5.46
CC1OC(=O)C(C(C)C)NC(=O)C(C(C)C)OC(=O)C(C(C)C)NC(=O)C(C)OC(=O)C(C(C)C)NC(=O)C(C(C)C)OC(=O)C(C(C)C)NC(=O)C(C)OC(=O)C(C(C)C)NC(=O)C(C(C)C)OC(=O)C(C(C)C)NC1=O (stereo not given) | 27.7
O=C(Nc1ccc(Oc2ccc(OC(F)(F)F)cc2)cc1)C1CC1 | 1.57
O=C(NNC(=O)c1csnn1)c1ccc(C(F)(F)F)cc1 | 3
CCCc1cc(O)c2c3c(c(=O)oc2c1)CN(C)CC3 | 0
CC(Cc1ccccc1)NCCCCCCCNC(C)Cc1ccccc1 (stereo not given) | 1.85
Cc1onc(O)c1CC(N)C(=O)O (stereo not given) | 0
CCCCCc1cc(O)c2c3c(c(=O)oc2c1)CN(C)CC3 | 2.29
OCCC1CN(Cc2cccc(Cl)c2)CCN1Cc1ccccc1 (stereo not given) | 7.69
COc1cc(OC)c(OC)cc1CN1CCN(C(C)C)CC1 | 0
CC(=O)N(C1=C(N(C)C)C(=O)c2ccccc2C1=O)c1cccc(F)c1 | 15.4
C=C[C@H]1CN2CC[C@H]1C[C@@H]2[C@@H](O)c1ccnc2ccccc12 | 4.69
C/C(=C\c1csc(C)n1)[C@@H]1C[C@@H]2O[C@]2(C)CCC[C@H](C)[C@H](O)[C@@H](C)C(=O)C(C)(C)[C@@H](O)CC(=O)O1 | 4.69
Oc1ccc(-c2ccnc3cc(Cl)ccc23)cc1CNC1CN2CCC1CC2 (stereo not given) | 0.855
C=CC1CN2CCC1CC2C(OC(=O)c1ccco1)c1ccnc2ccccc12 (stereo not given) | 0
CC(=O)O[C@]1(C(C)=O)CCC2C3C=CC4=CC(=O)CC[C@]4(C)C3CC[C@@]21C (stereo not given in full) | 2.33
COc1cc(CN2CC3CC(C2)c2cccc(=O)n2C3)ccc1O (stereo not given) | 0

Compound | IFI [%]
O=C(Nc1ccc(Cl)cc1)Oc1ccccc1 | 4.8
CCCCCCc1cc(O)c2c3c(c(=O)oc2c1)CCC(C)C3 (stereo not given) | 7.25
COc1ccccc1/C=C/CN(CCN1CCN(S(=O)(=O)c2cccc(C(F)(F)F)c2)CC1)C(=O)Cc1ccccc1 | 0.926
CN1C[C@@H](CSc2ccccn2)C=C2c3cccc4[nH]cc(c34)C[C@H]21 | 4.88
C=C[C@H]1CN2CC[C@H]1C[C@@H]2[C@@H](OC(=O)CCCCl)c1ccnc2ccccc12 | 0
CO/C(=C\C(N)=O)C(C)C(/C=C/c1csc(-c2csc(C(C)/C=C/C=C/C(C)C)n2)n1)OC (stereo not given) | 11.5
CCOC(=O)c1c(S(=O)(=O)Nc2ccc(C(C)(C)C)cc2)c(-c2ccccc2)n(-c2ccccc2)c1C | 3.09
Cc1ccn2c(NC(C)(C)CC(C)(C)C)c(-c3ccccc3OC(=O)Cc3ccccc3)nc2c1 | 3.74
Cc1n(-c2ccccc2)c2c([n+]1C)C(=O)c1ccccc1C2=O | 33.3
CCOC(=O)c1c(C)n(Cc2ccccc2)c2c1cc(O)c1c2c(-c2ccccc2)nn1-c1ccccc1 | 0
FC(F)(F)c1cccc(Nc2nnnc3ccccc23)c1 | 1.3
CCCCCCCc1cc(O)c2c3c(c(=O)oc2c1)CCC(C)C3 (stereo not given) | 0
N#CC1=C(N)Oc2c(c(=O)oc3ccccc23)C1c1ccoc1 (stereo not given) | 3.45
CCOC(=O)CC(C)(O)P(=O)(OC)OC (stereo not given) | 0
Nc1ccc(C(=O)NN=Cc2cccc([N+](=O)[O-])c2)cc1 | 0
C=C1[C@@H](C)[C@H]2[C@H](Cc3ccccc3)NC(=O)[C@]23C(OC(C)=O)C=C[C@@](C)(O)C(=O)[C@@H](C)CC=C[C@H]3[C@@H]1O (stereo not given in full) | 6.9
CC1CC2CCC(O2)C(C)C(=O)O[C@H](C)CC2CCC(O2)C(C)C(=O)OC(C)CC2CCC(O2)C(C)C(=O)O[C@H](C)CC2CCC(O2)C(C)C(=O)O1 (stereo not given in full) | 19.2
CC[C@H]1CN2CCc3cc(OC)c(OC)cc3[C@@H]2C[C@@H]1C[C@H]1NCCc2cc(O)c(OC)cc21 | 32.3
CN(C)c1ccc(/C=C2\C(=O)NC(=O)N(Cc3ccccc3Cl)C2=O)cc1 | 0
CC(C)[C@@]1(NC(=O)[C@@H]2C[C@@H]3c4cccc5[nH]cc(c45)C[C@H]3N(C)C2)O[C@@]2(O)[C@@H]3CCCN3C(=O)[C@H](CC3CCCCC3)N2C1=O | 9.52
CO[C@H]1[C@H](C)[C@@H]([C@H]2CC[C@H]([C@@H]3CC[C@H]([C@@]4(C)O[C@]5(O[C@H](C[C@@H]6O[C@](O)([C@@H](C)C(=O)O)[C@@H](C)[C@H](O[C@H]7CC[C@H](OC)[C@@H](C)O7)[C@@]6(C)OC)C[C@@H](OC)[C@H]5C)[C@H](C)[C@H]4OC)O3)O2)O[C@](C)(O)[C@@H]1C | 15.5
